Assay results from US20040053999A1, “Novel compounds and methods for synthesis and therapy” (priority 1997, published 2004).
Like-named read-outs stand apart in the source and are kept apart here. Marks after values point to notes of the source that are not given here.

System: Influenza A/NWS/33 (H1N1)
Format: in vivo, mice
Settings: for Mean Lung Parameters: Weight / Mean Lung Parameters: Score / Mean Lung Parameters: Weight (mg): p.o. bid x 5 days, day 6; for Mean Lung Parameters: Score: scale 0-4

SMILES	Reducing mortality in influenza-infected mice (oral or i.p. administration, practical therapeutic doses)	Mean Lung Parameters: Weight (10 mg/kg/day) [mg]	Mean Lung Parameters: Score (10 mg/kg/day)	Mean Lung Parameters: Weight (mg) (50 mg/kg/day)	Mean Lung Parameters: Score (50 mg/kg/day)	Mean Lung Parameters: Weight (mg) (250 mg/kg/day)	Mean Lung Parameters: Score (250 mg/kg/day)	Mean Lung Parameters: Weight (mg) (32 mg/kg/day)	Mean Lung Parameters: Score (32 mg/kg/day)	Mean Lung Parameters: Weight (mg) (100 mg/kg/day)	Mean Lung Parameters: Score (100 mg/kg/day)
CC(=O)N[C@H]1[C@H]([C@H](O)[C@H](O)CO)OC(C(=O)O)=C[C@@H]1N=C(N)N [GG167, 4-guanidino-2,4-dideoxy-2,3-dehydro-N-acetylneuraminic acid]	effective	250	1.5*	187* mg	1.5*	163** mg	0.3**	–	–	–	–
NC(=O)c1ncn([C@@H]2O[C@H](CO)[C@@H](O)[C@H]2O)n1 [Ribavirin, ribavirin]	–	267	2.2	–	–	–	–	163** mg	0.8**	140** mg	0.3**
